Binding signal (normalized occupancy) data for 110 sequences are collected here from publication PMC4242493.

The list shows a part of the results. The list includes weakly bound sequences.

In the test the target is MaxL homodimer (UniProt P61244). Kind of test: universal protein-binding microarray (PBM). The conditions noted are these: PBS-based mixture, 10 nM His-tagged protein dimer, 2% milk, 200 ng/uL BSA, 50 ng/uL salmon testes DNA, 0.02% TX-100; detection with Alexa 488 anti-His …; high values mean tight binding; most listed sequences are background and not binding sites; double strand, one strand shown.
Chain of UniProt P61244 (P61244 whole entry): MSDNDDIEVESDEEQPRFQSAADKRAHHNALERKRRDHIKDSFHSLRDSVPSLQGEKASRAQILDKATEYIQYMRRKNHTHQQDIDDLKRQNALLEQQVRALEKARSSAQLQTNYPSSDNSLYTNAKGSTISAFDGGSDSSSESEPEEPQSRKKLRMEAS
On to GTATCCGA, for which the binding signal (normalized occupancy) was 0.0719.

As for AGAGATAA, the binding signal (normalized occupancy) was 0.0771.

Consider CATGGAAC, for which the binding signal (normalized occupancy) amounted to 0.0836.

With GGGGACCA, the binding signal (normalized occupancy) turned out to be 0.08.

As to GTCAAACA, the binding signal (normalized occupancy) worked out at 0.0807.

In the case of AGACTACG, the binding signal (normalized occupancy) stood at 0.0723.

Regarding AAGTGTTG, the binding signal (normalized occupancy) came out at 0.0719.

For AGAAAACC, the binding signal (normalized occupancy) was found to be 0.0706.

Regarding GCCAAAAA, the binding signal (normalized occupancy) came out at 0.0676.

Take ACAGAGGA: the binding signal (normalized occupancy) is 0.0701.

For ATCCCGTA, the binding signal (normalized occupancy) is 0.0775.

AATTGATC: the binding signal (normalized occupancy) was 0.0748.

For ACCAGGGA, the binding signal (normalized occupancy) is 0.0753.

Turning to CGGTTAAA, the binding signal (normalized occupancy) was 0.0714.

With GGACACCA, the binding signal (normalized occupancy) turned out to be 0.0765.

For AACTCCGC, the binding signal (normalized occupancy) was 0.0703.

Regarding GCTGCTAA, the binding signal (normalized occupancy) came to 0.0678.

ACCTCGAG: the binding signal (normalized occupancy) came to 0.0843.

In the case of CGCGCGAG, the binding signal (normalized occupancy) was 0.0787.

Take ACTGAAAT: the binding signal (normalized occupancy) amounted to 0.0694.

Regarding AGTAGACT, the binding signal (normalized occupancy) is 0.0733.

Regarding GATCGGCC, the binding signal (normalized occupancy) is 0.069.

On to TGGACTAA, for which the binding signal (normalized occupancy) stood at 0.0709.

For the sequence AACTCCCA, the binding signal (normalized occupancy) came to 0.0735.

With ATCATGTA, the binding signal (normalized occupancy) was found to be 0.0811.

Turning to GCGTATCC, the binding signal (normalized occupancy) turned out to be 0.0747.

Take GCATTACC: the binding signal (normalized occupancy) stood at 0.0757.

Consider GCGGGCTA, for which the binding signal (normalized occupancy) is 0.0715.

Turning to TAGGACCA, the binding signal (normalized occupancy) came to 0.0741.

Turning to ATATGCAC, the binding signal (normalized occupancy) amounted to 0.092.

Consider AGAACGAT, for which the binding signal (normalized occupancy) turned out to be 0.0727.

Consider CAAATCGC, for which the binding signal (normalized occupancy) stood at 0.0728.

Consider ATTCCAAA, for which the binding signal (normalized occupancy) was found to be 0.0752.

For the sequence AAACTGAC, the binding signal (normalized occupancy) stood at 0.0689.

On to ACTAGCAA, for which the binding signal (normalized occupancy) came to 0.0719.

Take CCTCGAAC: the binding signal (normalized occupancy) was found to be 0.0701.

Regarding ATCAAACG, the binding signal (normalized occupancy) came to 0.0782.

Consider ACGCAGTG, for which the binding signal (normalized occupancy) stood at 0.0735.

For GAACCGAC, the binding signal (normalized occupancy) was found to be 0.0685.

With ATCGCGAC, the binding signal (normalized occupancy) amounted to 0.0736.

Take ACACGTAT: the binding signal (normalized occupancy) is 0.0833.

For the sequence GAAAACAA, the binding signal (normalized occupancy) came to 0.0774.

In the case of TAGAACTA, the binding signal (normalized occupancy) stood at 0.0696.

As for ATCACTGA, the binding signal (normalized occupancy) amounted to 0.073.

On to AACGAGCG, for which the binding signal (normalized occupancy) was 0.0748.

Take CTCGATAC: the binding signal (normalized occupancy) turned out to be 0.0749.

As to CATCAATG, the binding signal (normalized occupancy) was determined as 0.0829.

Take AAGTTAGA: the binding signal (normalized occupancy) was determined as 0.0733.

In the case of AACGCACC, the binding signal (normalized occupancy) amounted to 0.0799.

For CGAAGATA, the binding signal (normalized occupancy) was found to be 0.0773.

With CTTAAACA, the binding signal (normalized occupancy) was 0.0714.

With CTGCTTTC, the binding signal (normalized occupancy) stood at 0.0688.

Consider ATCCGTTA, for which the binding signal (normalized occupancy) came out at 0.076.

For the sequence AAGAGGAC, the binding signal (normalized occupancy) turned out to be 0.0753.

For the sequence CGCGGCGC, the binding signal (normalized occupancy) stood at 0.0731.

On to CACCAGCA, for which the binding signal (normalized occupancy) turned out to be 0.0803.

In the case of GAGGATGC, the binding signal (normalized occupancy) came to 0.081.

Turning to AAGGTCGT, the binding signal (normalized occupancy) is 0.0721.

Regarding ATATACCC, the binding signal (normalized occupancy) was 0.0842.

As to GATTCGCA, the binding signal (normalized occupancy) came to 0.077.

On to AGGTATCA, for which the binding signal (normalized occupancy) is 0.0877.

Take CCTCAACG: the binding signal (normalized occupancy) worked out at 0.078.

Turning to AGCAAAGA, the binding signal (normalized occupancy) turned out to be 0.0734.

GTAGACCA: the binding signal (normalized occupancy) came to 0.0778.

In the case of GTAAACAC, the binding signal (normalized occupancy) is 0.0782.

Consider ACCGATTA, for which the binding signal (normalized occupancy) was determined as 0.0723.

ACGAACAT: the binding signal (normalized occupancy) stood at 0.0821.

On to GGCCTACC, for which the binding signal (normalized occupancy) came to 0.0704.

GCCTGAGC: the binding signal (normalized occupancy) is 0.0708.

With CTTCGAAG, the binding signal (normalized occupancy) was 0.0673.

On to ACTCGTTG, for which the binding signal (normalized occupancy) worked out at 0.0775.

On to TAGCCCCA, for which the binding signal (normalized occupancy) is 0.0839.

As to ATTCTTGC, the binding signal (normalized occupancy) is 0.07.

For the sequence CCGCTGGA, the binding signal (normalized occupancy) worked out at 0.0679.

For the sequence AATCTCGA, the binding signal (normalized occupancy) was found to be 0.0757.

GGCAGGCA: the binding signal (normalized occupancy) was 0.0727.

For the sequence GACCTCTC, the binding signal (normalized occupancy) worked out at 0.0709.

As for ATTACGGC, the binding signal (normalized occupancy) came to 0.0711.

As for AGAATGCT, the binding signal (normalized occupancy) was found to be 0.0773.

Consider TATCGACA, for which the binding signal (normalized occupancy) was 0.0824.

For the sequence ACAAGCTG, the binding signal (normalized occupancy) stood at 0.0702.

ATTCACTA: the binding signal (normalized occupancy) worked out at 0.0794.

As for CGCGCAAA, the binding signal (normalized occupancy) was determined as 0.0707.

Turning to TAGCTGGA, the binding signal (normalized occupancy) was 0.0696.

With AAATGATA, the binding signal (normalized occupancy) is 0.0799.

Regarding GTAGCCTA, the binding signal (normalized occupancy) is 0.0745.

As to GCCGGGAA, the binding signal (normalized occupancy) was determined as 0.0691.

Take ATTCGTTG: the binding signal (normalized occupancy) was determined as 0.0761.

As to AAACCGAA, the binding signal (normalized occupancy) is 0.0754.

CCGGGGCC: the binding signal (normalized occupancy) is 0.0676.

Regarding ATCATGCC, the binding signal (normalized occupancy) came out at 0.0958.

In the case of CTCGATTA, the binding signal (normalized occupancy) is 0.0773.

As for CCCGATCC, the binding signal (normalized occupancy) was found to be 0.0759.

AATCGCGG: the binding signal (normalized occupancy) turned out to be 0.0703.

Take CCCCATAG: the binding signal (normalized occupancy) was found to be 0.0807.

As to AACAAATT, the binding signal (normalized occupancy) worked out at 0.0736.

For ACCGGGCA, the binding signal (normalized occupancy) was found to be 0.0707.

As for ACCGCTAG, the binding signal (normalized occupancy) stood at 0.0695.

For AAATGATT, the binding signal (normalized occupancy) came to 0.0757.

Turning to ACATTAAA, the binding signal (normalized occupancy) was found to be 0.0799.

Regarding CTTCAGGC, the binding signal (normalized occupancy) was found to be 0.0728.

In the case of AGTGATTC, the binding signal (normalized occupancy) came to 0.0729.

Regarding ACGATATG, the binding signal (normalized occupancy) was 0.083.

For ATAACAAC, the binding signal (normalized occupancy) was 0.0771.

For the sequence ATCGCCAG, the binding signal (normalized occupancy) amounted to 0.0753.

On to CTACTGAG, for which the binding signal (normalized occupancy) was determined as 0.0688.

TGCCATAA: the binding signal (normalized occupancy) was 0.0864.

As for ATAGCTCA, the binding signal (normalized occupancy) is 0.0729.

On to GGGGGAAA, for which the binding signal (normalized occupancy) worked out at 0.0757.

In the case of GTTGCGCA, the binding signal (normalized occupancy) worked out at 0.0736.
